About 4,300 (8.3%) of roughly 52,000 compounds were called active. Rule as the data show it: active = survival mostly below about 52% (no sharp cut-off); inactive = mostly above about 56%. The list shows a part of the results.
test system: DeltatarO mutant; assay: S. aureus survival, RN4220 and DeltatarO strains – OD600, teichoic acid synthesis inhibitors, primary screen (AID 463173); details: S. aureus RN4220 wild type/DeltatarO growth, OD600, 18 h, hits give low values, screened at 18.75 µg/mL (by protocol)

SMILES	survival
CC1=C(C(=O)Nc2ccccc2)C(c2ccccn2)n2nc(SCc3ccccc3)nc2N1 (stereo not given)	inactive: 68%
Cc1ccc2c(c1)C(c1ccccc1)N(C(=O)COc1ccc(Cl)cc1Cl)CC(=O)N2 (stereo not given)	active: 49%
Cc1ccc(-n2nc(C)c3c(C(=O)Nc4ccccc4C(F)(F)F)cc(C)nc32)cc1	inactive: 95%
N#CCOC(=O)c1cc(-c2ccc(C=C(C#N)C#N)o2)ccc1Cl	inactive: 99%
CCOC(=O)N1c2ccccc2Sc2ccccc21	inactive: 98%
O=C(COc1ccccc1Cl)OCc1cc(=O)n2nc(-c3cccs3)sc2n1	inactive: 66%
CC1(C)CC(CC(N)=O)(c2ccccc2)CCO1 (stereo not given)	inactive: 89%
Cc1ccc(CNC(=O)Cc2c(C)c3cc4c(C)coc4cc3oc2=O)cc1	inactive: 72%
Cc1ccccc1NC(=S)N1CCC(NC(=O)C(C)(C)C)CC1	inactive: 92%
CCOC(=O)c1c(NC(=O)c2nc(SCC)ncc2Cl)sc(C(C)=O)c1C	inactive: 75%
CCOC(=O)c1ccc(N2CCN(c3cccc(OC)c3)CC2)c(NC(=O)Nc2ccc(OCC)cc2)c1	active: -5%
O=C(O)c1ccc(CNCc2ccc(Cl)cc2)s1	inactive: 97%
CC(C)CN(C(=O)c1cccc(S(=O)(=O)N2CCCCC2)c1)C1CCS(=O)(=O)C1 (stereo not given)	inactive: 67%
Cc1ccc2nc(Nc3cccc(Cl)c3C)c(-n3nc(C)cc3C)nc2c1	inactive: 123%
Cc1c(-c2nc(-c3ccc4c(c3)OCO4)no2)nnn1-c1ccc(Br)cc1F	inactive: 83%
Cc1ccccc1NC(=O)Cn1c(SCC(=O)Nc2ccc(F)cc2)nc2ccccc21	inactive: 95%
CCOC(=O)c1ccc(NC(=O)Cn2c(=O)n(-c3ccc(C)cc3)c(=O)c3c2cnn3C)cc1	inactive: 81%
COc1ccc(S(=O)(=O)Nc2ccccc2C(=O)NCc2ccco2)cc1OC	inactive: 82%
CC1=C(C(=O)Nc2ccccc2)C(c2ccncc2)n2nc(SCc3ccccc3Cl)nc2N1 (stereo not given)	inactive: 74%
O=C(Cn1c(=O)n(Cc2ccco2)c(=O)c2ccccc21)Nc1ccc(Cl)cc1Cl	inactive: 83%
Cc1ccc(S(=O)(=O)Cc2ccc(C(=O)N3CCN(c4cccc(C)c4C)CC3)o2)cc1	inactive: 126%
CCC(Cn1nnc2ccccc2c1=O)NC(=O)Nc1cccc(C)c1C (stereo not given)	inactive: 55%
COc1ccc(C(=O)OCc2cc(=O)n3nc(-c4cccs4)sc3n2)cc1	inactive: 60%

SMILES	survival
CCC(=O)N1CCc2cc(Br)cc(S(=O)(=O)CCC(=O)N3CCN(c4cccc(C(F)(F)F)c4)CC3)c21	inactive: 57%
Cc1ccc(NC(=O)C2CCCN(c3nnc(C)c4c(C)n(-c5ccccc5)nc34)C2)c(Cl)c1 (stereo not given)	inactive: 99%
O=[N+]([O-])c1cc(-c2nc(-c3ccccc3)no2)ccc1N1CCCCC1	inactive: 53%
CCC(CO)NC(=O)C(=O)Nc1c2c(nn1-c1ccc(F)cc1)CSC2 (stereo not given)	inactive: 80%
CN(C)c1nc(Cl)nc(NCCOc2ccccc2)n1	inactive: 100%
CCOC(=O)c1cnn(Cc2ccccc2)c1N	inactive: 79%
CC(C)(C)c1ccc(S(=O)(=O)NCc2ccc3c(c2)CCN3C(=O)c2ccccc2)cc1	inactive: 67%
CCN(CC)S(=O)(=O)c1ccc2nc(NC(=O)c3cccnc3)sc2c1	inactive: 80%
O=C(c1ccc(Cl)cc1)N1CCC(c2ccncc2)CC1	inactive: 87%
COc1cc(-c2noc(-c3ccc(N4CCN(C)CC4)c([N+](=O)[O-])c3)n2)cc(OC)c1OC	inactive: 105%
O=C(Cn1c(=O)ccc2cc(S(=O)(=O)N3CCCC3)ccc21)NCc1ccc(Cl)cc1	inactive: 102%
O=C(NCCO)c1ccc2[nH]c3c(c2c1)CCCC3	inactive: 85%
CCOc1ccc(NC(=O)c2c(Nc3ccc(OC)cc3OC)sc(C(=O)c3ccc(Cl)cc3)c2N)cc1	inactive: 102%
COCCn1c(=O)[nH]c2cc(C(=O)NCc3ccccc3Cl)ccc2c1=O	inactive: 89%
CCOc1ccc(CCNC(=O)CCc2cn(Cc3ccccc3F)c3ccccc23)cc1OCC	inactive: 74%
CCOC(=O)c1cccc(NC(=O)c2cc3sccc3n2Cc2ccc(Cl)cc2)c1	inactive: 106%
CCC(C)C(=O)NCc1ccc(C)cc1 (stereo not given)	inactive: 88%
CCN(c1ncnc2c1cnn2-c1ccc(C)cc1)C1CCCCC1	inactive: 89%
COc1ccccc1CNS(=O)(=O)c1c(C)nc2scc(C)n2c1=O	inactive: 75%
Cc1cc(Nc2ccc(C)c(Cl)c2)n2nc(Cc3ccccc3)nc2n1	active: 31%
CCOc1ccc2oc(=O)cc(CN3CCN(c4cc(C)ccc4C)CC3)c2c1	inactive: 75%
CCOc1cc(S(=O)(=O)NCc2ccc(OC)cc2)c(OCC)cc1-n1cnnn1	inactive: 101%
CC(C)CN(CCCNC(=O)c1cc(=O)[nH]c2ccc(S(=O)(=O)N3CCCCCC3)cc12)CC(C)C	inactive: 77%

SMILES	survival
CCNC(=O)c1cc2sccc2n1Cc1ccccc1	inactive: 93%
CC(=O)N1c2nc(C(C)C)nn2C2(CCCCC2)[C@@H]2CCCC[C@@H]21	inactive: 93%
O=C(CSc1nnc(-c2cccc(Cl)c2)o1)N1CCc2ccccc21	inactive: 85%
COc1cc(OC)c(NC(=O)C2=C(C)C(=O)OC23CCCCCC3)cc1Cl	inactive: 102%
CCn1c2c(c(=O)n3ncc(C(=O)Nc4cc(Cl)ccc4C)c13)CN(Cc1ccc(OC)cc1)CC2	inactive: 94%
COc1ccc(C2C=C(c3cccc(OC)c3)Nc3c(C(=O)Nc4ccccc4)cnn32)cc1 (stereo not given)	inactive: 52%
Cc1ccn2c(Nc3ccc(C(C)C)cc3)c(-c3cccs3)nc2c1	inactive: 66%
CC(=O)Nc1cccc(NC(=O)CN2C(=O)CCSc3ccccc32)c1	inactive: 95%
Cc1nc2nc(NC(=O)c3ccccc3F)[nH]n2c(=O)c1Cl	inactive: 93%
Cc1cccc(N2CCN(C(=O)c3cccn4c(=O)c5cc(Cl)ccc5nc34)CC2C)c1 (stereo not given)	inactive: 66%
COc1ccc(CNC(=O)CN2C3CCCC2CC(=O)NC3)cc1 (stereo not given)	inactive: 93%
CC(=O)N1c2ccc(S(=O)(=O)NCC3CCC(C(=O)Nc4ccc(C)cc4)CC3)cc2CC1C (stereo not given)	inactive: 70%
CN(Cc1ccco1)C(=O)c1ccc2c(c1)N(Cc1ccccc1F)C(=O)c1ccccc1S2	inactive: 115%
COc1ccccc1-c1nnc(SCC(=O)Nc2ccccc2F)o1	inactive: 79%
Cc1ccc(Cl)cc1NC(=O)CCC(=O)N1CC(C)Sc2ccccc21 (stereo not given)	active: 44%
CCC1CN(C(=O)N2CCC(C(=O)N3CCN(c4cccc(C)c4C)CC3)CC2)c2ccccc2O1 (stereo not given)	inactive: 62%
CC(C)(C)Nc1nc(OCC#N)nc(N2CCOCC2)n1	inactive: 113%
COc1cc(CNC(=O)c2ccc3c(c2)N(C)C(=O)C2CCCCN32)cc(OC)c1OC (stereo not given)	inactive: 69%
COc1ccc2c(c1)N(C)/C(=c1/s/c(=C3/C(=O)N(c4ccccc4)N=C3C)n(C)c1=O)S2	inactive: 88%
CC(=O)N1CCc2c(sc3c2c(=O)n(-c2ccccc2)c(=O)n3CC(=O)Nc2ccccc2)C1	inactive: 91%
CCc1ccc(NC(=O)CN2CCCN(Cc3cccc(Cl)c3)S2(=O)=O)cc1	inactive: 100%
COC(=O)c1cc2sc(C)cc2n1CC(=O)Nc1ccc(C)c(C)c1	inactive: 64%
Cc1ccc(C2=C(CC(=O)O)C(=O)CC2)cc1	inactive: 101%

SMILES	survival
CCOC(=O)c1ccc(N2C(=O)CC(NC(C)(C)C)C2=O)cc1 (stereo not given)	inactive: 63%
COc1ccc2c(c1)c1c(c(=O)n(-c3ccc(F)c(Cl)c3)c(=O)n1CC(=O)N1CCCC1)n2C	inactive: 94%
Cc1c2cnn(-c3ccccc3)c(=O)c2c(C)n1CC(=O)NCCc1ccc(Cl)cc1	inactive: 102%
O=C(NC1CCCCC1)/C(=N\O)c1ccccn1	inactive: 97%
O=C(CCC(=O)N1Cc2ccccc2Oc2ncccc21)Nc1ccc(Cl)cc1	active: 37%
COc1ccc(-c2nn(CC(=O)NC3CCCC3)c3c2cnc2ccc(F)cc23)cc1	active: 46%
CCOc1ccccc1-n1ccnc(NCc2ccc(F)cc2)c1=O	inactive: 103%
CCOc1ccc(N(CC(=O)Nc2ccccc2)S(C)(=O)=O)cc1	inactive: 81%
Cc1cccc(NC(=O)Nc2nnc(N(C)C3CCCCC3)s2)c1C	inactive: 106%
Cc1nn(CC(=O)NCc2ccco2)c(=O)c2cc3ccccc3n12	inactive: 92%
CCc1ccccc1N(C)C(=O)c1cn(CC(C)C)c(=O)c2cc(OC)c(OC)cc12	inactive: 73%
O=C(CSc1nc2nccnc2c(=O)n1CCc1c[nH]c2ccccc12)Nc1ccccc1F	active: 46%
CCN(CC)c1nc(-c2ccc(C(C)(C)C)cc2)nc2ccccc12	active: -1%
COc1ccc2c(CNCC(C)c3ccccc3)c(C(=O)O)n(Cc3ccc(F)cc3Cl)c2c1 (stereo not given)	inactive: 107%
COc1ccc(/C=C(\C#N)c2nc(-c3cc(Cl)ccc3OC)cs2)cc1	inactive: 91%
O=C1CS(=O)(=O)C2(C(=O)N(Cc3cccc(F)c3)c3ccccc32)N1c1ccccc1 (stereo not given)	inactive: 99%
CC1CCN(S(=O)(=O)c2ccc3c(c2)N(CC(=O)NCc2ccccc2)C(=O)CO3)CC1	inactive: 116%
COC(=O)c1ccc(Cl)cc1NC(=O)N1CC=C(c2c[nH]c3ccccc23)CC1	inactive: 67%
COc1ccc(OC)c(NC2=C(c3ccccc3)C(=O)c3ccccc32)c1	inactive: 62%
COc1ccc(N2CCN(C(=O)c3cc4c(-c5ccccc5F)nn(C)c4s3)CC2)cc1	inactive: 65%
O=C(Cn1ncc2c(=O)oc3ccccc3c21)Nc1cc(F)ccc1F	inactive: 78%

Source: PubChem BioAssay AID463173 (ICCB-Longwood Screening Facility, Harvard Medical School, 2010)
